# Laboratory results as given in the supplement of paper PMC4604168 (melanoma cell lines).
# The list shows a part of the results. Many values rest on one well or one pass, so single values are uncertain.
# Tested on: RPMI7951
# Assay: cell count relative to DMSO control; melanoma cells; higher = more viable cells
# Settings: library dose: standard library concentration; 72 h
# 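Also: cells treated in 1,536-well plates, then fixed and DAPI-stained, with nuclei counted from automated high-throughput microscope images.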
row,Compound,cell count [%]
1,"O=C(Nc1ccccc1)c1cc([N+](=O)[O-])ccc1Cl + O=S(=O)(c1ccccc1)N(CC(F)(F)F)c1ccc(C(O)(C(F)(F)F)C(F)(F)F)cc1 [T0901317] (first compound 10 µM, partner dose 7 µM)",91.3
2,"O=C(Nc1cc(C(F)(F)F)cc(C(F)(F)F)c1)c1cc(Cl)ccc1O + CCc1ccc(CCOc2ccc(CC3SC(=O)NC3=O)cc2)nc1 [pioglitazone] (first compound 0.08 µM, partner dose 10 µM)",96.6
3,"Cn1nnc2c(C(N)=O)ncn2c1=O [temozolomide] + Oc1nc(-c2ccc(C(F)(F)F)cc2)nc2c1CSCC2 [XAV939] (first compound 10 µM, partner dose 10 µM)",103
4,"O=C(Nc1cc(C(F)(F)F)cc(C(F)(F)F)c1)c1cc(Cl)ccc1O + C[C@]1(c2nc3c(C(N)=O)cccc3[nH]2)CCCN1 [Veliparib] (first compound 0.08 µM, partner dose 7 µM)",93.2
5,"O=C(O)c1ccc2c(c1)nc(Nc1cccc(Cl)c1)c1ccncc12 + O=C(Nc1ccccc1)c1cc([N+](=O)[O-])ccc1Cl [GW9662] (first compound 2 µM, partner dose 10 µM)",47.1
6,"O=C(O)c1ccc2c(c1)nc(Nc1cccc(Cl)c1)c1ccncc12 + Cn1cc(/C=C2\C(=O)Nc3cccnc32)c2ccccc21 [GW441756] (first compound 2 µM, partner dose 2 µM)",73.4
7,"O=C(O)[C@@H]1[O][Sb](=[O])([O][Sb]2(=[O])[O][C@H]([C@H](O)CO)[C@H](O)[C@H](C(=O)O)[O]2)[O][C@H]([C@H](O)CO)[C@@H]1O (stereo not given in full) [stibogluconate] + COc1ccc2c(c1)CCC1C2CCC2(C)C(NCCCCCCN3C(=O)C=CC3=O)CCC12 [U73122] (first compound 10 µM, partner dose 2 µM)",71.3

# Tested on: RVH-421
# Assay: as above
# Settings: library dose: standard library concentration; 72 h
row,Compound,cell count [%]
1,"O=C(Nc1cc(C(F)(F)F)cc(C(F)(F)F)c1)c1cc(Cl)ccc1O + Nc1ncn([C@H]2C[C@H](O)[C@@H](CO)O2)c(=O)n1 [decitabine] (first compound 0.08 µM, partner dose 0.5 µM)",79.4
2,"O=C(O)[C@@H]1[O][Sb](=[O])([O][Sb]2(=[O])[O][C@H]([C@H](O)CO)[C@H](O)[C@H](C(=O)O)[O]2)[O][C@H]([C@H](O)CO)[C@@H]1O (stereo not given in full) [stibogluconate] + N#Cc1c(O)c2c(-c3ccc(-c4ccccc4O)cc3)csc2[nH]c1=O [A769662] (first compound 10 µM, partner dose 10 µM)",115
3,"O=C(Nc1ccccc1)c1cc([N+](=O)[O-])ccc1Cl + Cc1cc([N+](=O)[O-])ccc1NS(=O)(=O)c1cc(Cl)ccc1Cl [FH535] (first compound 10 µM, partner dose 5 µM)",57.4
4,"O=C(Nc1cc(C(F)(F)F)cc(C(F)(F)F)c1)c1cc(Cl)ccc1O + Nc1ccn([C@@H]2O[C@H](CO)[C@@H](O)C2(F)F)c(=O)n1 [gemcitabine] (first compound 0.08 µM, partner dose 0.002 µM)",53.4
5,"O=C(Nc1cc(C(F)(F)F)cc(C(F)(F)F)c1)c1cc(Cl)ccc1O + C=CCn1c(=O)c2cnc(Nc3ccc(N4CCN(C)CC4)cc3)nc2n1-c1cccc(C(C)(C)O)n1 [MK1775] (first compound 0.08 µM, partner dose 0.1 µM)",91.1
6,"O=C(Nc1cc(C(F)(F)F)cc(C(F)(F)F)c1)c1cc(Cl)ccc1O + CCCCCCCCCCCC1=C(O)C(=O)C=C(O)C1=O [Embelin] (first compound 0.08 µM, partner dose 6 µM)",68.4
7,"Cn1nnc2c(C(N)=O)ncn2c1=O [temozolomide] + CCN(CC)CCCCNc1ncc2cc(-c3cc(OC)cc(OC)c3)c(NC(=O)NC(C)(C)C)nc2n1 [PD173074] (first compound 10 µM, partner dose 0.5 µM)",122
8,"O=C(O)[C@@H]1[O][Sb](=[O])([O][Sb]2(=[O])[O][C@H]([C@H](O)CO)[C@H](O)[C@H](C(=O)O)[O]2)[O][C@H]([C@H](O)CO)[C@@H]1O (stereo not given in full) [stibogluconate] + Nc1ncn([C@H]2C[C@H](O)[C@@H](CO)O2)c(=O)n1 [decitabine] (first compound 10 µM, partner dose 0.5 µM)",98.5
